Assay results as given in publication PMC6919601, “Identification of Plasmodium dipeptidyl aminopeptidase allosteric inhibitors by high throughput screening” (PLoS ONE, 2019).
In all, about 110,000 compounds went through this assay and about 230 (0.21%) showed an effect of 50% or more. The list shows a part of the results.

Each compound was assayed against DPAP1 (Plasmodium falciparum, UniProt Q8IIJ9) (assay: primary screen, percent inhibition; read by cleavage of a fluorogenic dipeptide substrate; higher = more effect of the substance).
Design: species or system P. falciparum D10 trophozoite lysates; single well
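Also: 30 min substrate incubation versus DMSO and 10 µM JCP410 controls.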

Sequence of DPAP1 (Q8IIJ9 whole entry, looked up): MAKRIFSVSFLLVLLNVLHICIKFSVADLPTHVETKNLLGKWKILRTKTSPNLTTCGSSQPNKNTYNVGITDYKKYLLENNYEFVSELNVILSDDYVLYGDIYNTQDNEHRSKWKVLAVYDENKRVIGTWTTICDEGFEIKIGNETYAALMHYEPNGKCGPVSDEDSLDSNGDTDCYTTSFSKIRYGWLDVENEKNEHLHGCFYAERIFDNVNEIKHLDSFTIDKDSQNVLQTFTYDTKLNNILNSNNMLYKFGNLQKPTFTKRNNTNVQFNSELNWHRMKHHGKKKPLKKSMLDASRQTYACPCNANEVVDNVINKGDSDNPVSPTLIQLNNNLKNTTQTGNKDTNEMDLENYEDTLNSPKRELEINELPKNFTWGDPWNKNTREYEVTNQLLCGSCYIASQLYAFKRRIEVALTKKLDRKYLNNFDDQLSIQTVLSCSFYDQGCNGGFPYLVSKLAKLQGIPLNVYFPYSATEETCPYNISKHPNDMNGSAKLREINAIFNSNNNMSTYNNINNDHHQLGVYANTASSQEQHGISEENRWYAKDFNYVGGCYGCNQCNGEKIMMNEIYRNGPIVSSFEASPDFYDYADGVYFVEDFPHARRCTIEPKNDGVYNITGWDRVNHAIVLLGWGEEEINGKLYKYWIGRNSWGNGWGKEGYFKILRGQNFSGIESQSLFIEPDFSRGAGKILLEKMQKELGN

| Structure (SMILES) | % Inhibition @ 10 uM |
| --- | --- |
| O=C(Cn1cccc1C(=O)c1ccccc1)NCCCc1ccccc1 | -4.04% |
| NC(=O)c1cc(S(=O)(=O)NCCc2ccccc2)cs1 | -3.15% |
| Cc1onc(-c2ccccc2)c1C(=O)NC12CC3CC(CC(C3)C1)C2 | 1.7% |
| Cn1cc(/C=C(\NC(=O)c2ccco2)C(=O)NCCO)c2ccccc21 | 1.64% |
| COCCNCc1c(C(=O)O)n(Cc2ccc(F)cc2Cl)c2cc(OC)ccc12 | 7.68% |
| N#CC1=C(N)Oc2cc(O)ccc2C1c1ccncc1 (stereo not shown) | 0.726% |
| O=C(NC(c1ccccc1)c1ccccc1)C1CCN(S(=O)(=O)c2cccc3nonc23)CC1 | -0.668% |
| COc1ccc(-c2csc3ncn(CC(=O)Nc4ccc(C)cc4C)c(=O)c23)cc1OC | -0.661% |
| Cc1ccc(NCc2c3ccccc3c(CNc3ccc(C)cc3Br)c3ccccc23)c(Br)c1 | 0.98% |
| COc1cc(-c2[nH]nc3c2C(c2cccs2)C(C#N)=C(N)O3)cc(OC)c1OC (stereo not shown) | 7.1% |
| Cc1ccc(S(=O)(=O)NCC(Sc2nnc3nc(C)cc(C)n23)c2ccccc2)cc1 (stereo not shown) | -2.05% |
| COc1ccc(N(CC(=O)N2CCOCC2)S(C)(=O)=O)cc1OC | -2.22% |
| O=C(O)CC(CNC(=O)c1cc2cc(Br)ccc2oc1=O)c1ccccc1 (stereo not shown) | -4.04% |
| COCCn1c(C)cc(C(=O)C(=O)Nc2nnc(Cc3ccc(OC)c(OC)c3)s2)c1C | -8.56% |
| CCn1cc(CNC(=O)c2c(-c3c(Cl)cccc3Cl)noc2C)c(C)n1 | 2.73% |
| COc1ccc(CN2CC(C(=O)NCCCN3CCCC(C)C3)CC2=O)cc1 (stereo not shown) | -0.0542% |
| Cc1ccc(S(=O)(=O)NC(=O)Nc2nc3ccccc3s2)cc1 | -6.41% |
| COc1ccccc1-c1csc(C(=O)N[C@@H](CC(C)C)C(=O)NCC#N)c1 | -1.41% |
| COc1cccc2c1OC1(CCCCC1)N1N=C(c3ccc(C)o3)CC21 (stereo not shown) | 1.88% |
| CC(C)c1ccc(NC(=O)c2cccc(Br)c2)cc1 | -0.127% |
| Cc1cc(C)c(C#N)c(SCC(=O)NC(C)C23CC4CC(CC(C4)C2)C3)n1 (stereo not shown) | -4.43% |
| Cc1cc2nc(O)cc(-c3ccccc3)n2n1 | -3.1% |

| Structure (SMILES) | % Inhibition @ 10 uM |
| --- | --- |
| CCOc1ccc(NC(=O)c2cncc(Br)c2)cc1 | 4.44% |
| CCCCN(C)CCNC(=O)C1CCN(S(=O)(=O)c2cccc3nsnc23)CC1 | -5.22% |
| O=C(O)c1ccccc1SC1CC(=O)N(c2ccc(F)cc2)C1=O (stereo not shown) | -2.07% |
| CC1=NN(c2ccccc2)C(=O)/C1=C1/C(=O)Nc2c1ccc(Cl)c2C | 1.15% |
| COc1ccc(NCc2cccc(C(F)(F)F)c2)c(OC)c1 | -0.0953% |
| CC1CC(C(F)F)n2nc(C(=O)O)nc2N1 (stereo not shown) | -7.35% |
| COC(=O)c1cc(C2CC2)nc2c1c(C)nn2-c1ccccc1 | 7.86% |
| O=C1CC2(O)CCC1(c1ccccc1)CC2 | 1.41% |
| FC(F)(F)c1cccc(N2CCN(Cc3ccco3)CC2)c1 | 1.48% |
| O=C(NC1CCCc2ccccc21)C1CCN(S(=O)(=O)N2CCCCCC2)CC1 (stereo not shown) | 0.955% |
| O=C1CCCC(=O)C1=CNc1ccc(C(=O)NC2CCCCC2)cc1 | -6.18% |
| O=C(NCc1cccc(Cl)c1)C1CCN(c2nnc(N3CCCC3=O)s2)CC1 | 0.623% |
| Cc1c(Cl)cccc1N(CC(=O)N1CCCCC1)S(C)(=O)=O | -1.04% |
| CCOC(=O)C1=C(CN(C)Cc2ccccc2)NC(=O)NC1c1ccc(C)cc1 (stereo not shown) | -5.16% |
| Cc1cccc(NC(=O)CN(c2ccc(F)cc2)S(C)(=O)=O)c1 | 3.24% |
| Cc1cccc(CNC(=O)C(C)Nc2nn3c(=O)cc(C)nc3s2)c1 (stereo not shown) | 1.38% |
| O=C(CCN1C(=O)c2ccccc2C1=O)Nc1ccccc1C(=O)O | -1.99% |
| CCOc1ccc(C(NC(=O)c2ccc(F)cc2)c2ccc(OC)c(OC)c2)cc1 (stereo not shown) | 24.9% |
| O=C(CSc1nncn2c1cc1occc12)NCc1ccco1 | -0.232% |
| COc1cccc(N2CCN(Cc3ccoc3)CC2)c1 | -1.75% |
| C=CC[n+]1ccc(COC(=O)Nc2cccc(C(F)(F)F)c2)cc1 | 5.9% |
| Clc1cccc(N2CCN(C3CCCCCC3)CC2)c1 | -0.0908% |

| Structure (SMILES) | % Inhibition @ 10 uM |
| --- | --- |
| C=CCc1ccccc1OCc1cccc(C(=O)O)c1 | -5.24% |
| CC1=C(C(=O)Nc2cccnc2)C(c2ccc(C)cc2)n2nc(SCc3ccccc3)nc2N1 (stereo not shown) | 5.11% |
| CSc1ccc(/C=C2\N=C(c3ccco3)OC2=O)cc1 | -1.51% |
| CCCCCOc1ccc(C#N)c2ccccc12 | -2.89% |
| COc1cc(-c2cccn2C)c(OC)cc1-c1cccn1C | 6.1% |
| CN1CCC(N(C)Cc2ccc(C(F)(F)F)cc2)CC1 | -2.56% |
| CCOC(=O)/C(C#N)=C(\C)CCc1ccccc1 | -4.06% |
| Cc1cc(C)c2c(-n3cccc3)c(C(=O)N3CC(C)CC(C)C3)sc2n1 (stereo not shown) | 3.87% |
| Cc1oc2ncn(C)c(=O)c2c1C(=O)Nc1nc2ccccc2s1 | 7.46% |
| CC1(C)Cc2c(sc3nc(SCC(=O)O)n(C4CCCCC4)c(=O)c23)CO1 | -2.8% |
| Cc1ccc2oc(=O)c3cnn(CC(=O)NCCc4ccc(S(N)(=O)=O)cc4)c3c2c1 | -1.7% |
| O=C(O)C1CC(=O)N(Cc2ccc3c(c2)OCO3)/C(=N/c2ccc(Cl)cc2)S1 (stereo not shown) | 10.2% |
| CN(C)CCN(C)Cc1ccc(Br)s1 | 6.9% |
| Cc1nn(CCC(=O)NCc2cccnc2)c(=O)c2nn(-c3ccccc3)c(C)c12 | -7.74% |
| COc1ccc(S(=O)(=O)NC2CC(C)(C)NC(C)(C)C2)cc1C | 1.88% |
| O=C(c1cc2n(n1)C(C(F)(F)F)CC(c1ccc(F)cc1)N2)N1CCOCC1 (stereo not shown) | 0.687% |
| COc1cc(O)ccc1C=O | 0.66% |
| CC1=C(C(=O)NCCc2ccc(S(N)(=O)=O)cc2)C2(CCCCC2)OC1=O | 3.19% |
| COc1ccccc1Cn1c(SCC(N)=O)nc2nccnc2c1=O | -4.37% |
| CCOc1cc(C=O)ccc1OCCOc1cccc(C)c1 | 1.58% |
